Here are results for 52 compounds from PubChem BioAssay AID1347073 (National Center for Advancing Translational Sciences (NCATS), 2019).

Among all 45,000 compounds or so, about 200 (0.44%) were called active. Inconclusive results (about 7%) are left out. Calls follow the shape of the dose curve; as a rule, active = well fitted activation curve with a large enough effect; inconclusive = small, poorly fitted or top-dose-only effect; inactive = no such curve, though single readings can be large or run the other way. This is one part of the list.

The nature of the experiment: qHTS of TDP-43 Inhibitors: NCGC Sytravon Library Screen. Also: 0% is about no effect; nearly all actives have a fitted effect of over 55% in size. As to conditions: yeast TDP-43 toxicity rescue, BacTiter-Glo growth, 24 h; series mostly up to 46.1 µM; growth rescue (activation): at the top concentration. In a few lines: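 TDP-43-expressing yeast, pregrown in raffinose, seeded at OD600 0.02 in galactose medium with compound for 24 hr at 30 deg C. Growth read by BacTiter-Glo luminescence, so rescue of toxicity appears as activation.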
For orientation: Quantitative high-throughput screening tests each substance at several concentrations.
Turning to `O=C(Nc1ccccc1-c1ccccc1)c1ccc(Cl)c([N+](=O)[O-])c1`, the “growth rescue (activation)” value was inactive: 20.9%.

On to `S=C(Nc1cc(Cl)ccc1Oc1ccccc1)N1CCN(c2ccccn2)CC1`, for which the “growth rescue (activation)” value is inactive: 11.2%.

With `CCOC(=O)c1c(-c2ccccc2)csc1NC(=O)COc1ccc2c(C)cc(=O)oc2c1`, the “growth rescue (activation)” value is inactive: 13.5%.

For the compound `COc1cc(/C=C/C(=O)N[C@@H](Cc2c[nH]c3ccccc23)C(=O)O)ccc1O`, the “growth rescue (activation)” value is inactive: -1.18%.

Take `O=C(Cn1nc(C(F)(F)F)c2c1CCCC2)N1CCOCC1`: the “growth rescue (activation)” value is inactive: 3.25%.

In the case of `CCc1nc2ccccc2c(C(=O)NCc2ccc(OC)cc2)c1C`, the “growth rescue (activation)” value was inactive: 7.48%.

`C/C(=N\NC(N)=O)C1CC(CC(C)C)C(=O)O1` (configuration not stated): the “growth rescue (activation)” value is inactive: 3.55%.

On to `COc1ccc(N(C(=O)CNC(=O)c2ccco2)C(C(=O)NCC2CCCO2)c2ccccc2)cc1OC` (configuration not stated), for which the “growth rescue (activation)” value was inactive: -23.8%.

On to `CCOc1cc(NC(=O)CCl)c(OCC)cc1NC(C)=O`, for which the “growth rescue (activation)” value was inactive: -3.67%.

In the case of `Cc1cc(=O)oc2cc(OC(=O)c3nn(C(C)C)c(=O)c4ccccc34)ccc12`, the “growth rescue (activation)” value was inactive: 11.3%.

For the compound `CCCC1N2CC3([N+](=O)[O-])CN1CC([N+](=O)[O-])(C2)C3(C)C` (configuration not stated), the “growth rescue (activation)” value was inactive: -45.6%.

In the case of `Cc1ccc(NC(=O)CSc2ccc(C(N)=O)cc2[N+](=O)[O-])cc1`, the “growth rescue (activation)” value was inactive: 0.108%.

`COc1ccc(NC(=O)c2cccc(NC(=O)C(C)C)c2)c([N+](=O)[O-])c1`: the “growth rescue (activation)” value was inactive: 5.57%.

As to `CC(C)c1cc(C(=O)N2CCCC(Nc3ccc(F)cc3)C2)n[nH]1` (configuration not stated), the “growth rescue (activation)” value is inactive: -10.4%.

Take `O=C1CC(N2CCN(Cc3ccc(Cl)cc3)CC2)C(=O)N1CCc1ccccc1` (configuration not stated): the “growth rescue (activation)” value is inactive: -2.35%.

Turning to `O=C(NN1C(=O)/C(=C/C=C/c2ccccc2)SC1=S)c1ccncc1`, the “growth rescue (activation)” value is inactive: 9.87%.

Regarding `Cc1ccc(NC(=O)COC(=O)c2nn(C)cc2Cl)cc1`, the “growth rescue (activation)” value is inactive: 8.57%.

On to `CC(Sc1nnc(N)s1)C(=O)NNC(=O)c1cccc(Cl)c1` (configuration not stated), for which the “growth rescue (activation)” value is inactive: 15.4%.

On to `O=c1c2ccccc2nc(SCc2nc3ccccc3s2)n1CCCO`, for which the “growth rescue (activation)” value is inactive: -14.9%.

As to `OC[C@@H]1CN(Cc2ccc(-c3ccccc3)cc2)C[C@H](n2cnc3c(NCc4ccncc4)ncnc32)O1`, the “growth rescue (activation)” value is inactive: 1.03%.

For the compound `CCOC(=O)c1c(NC(=O)Cn2cnc([N+](=O)[O-])n2)sc2c1CCCC2`, the “growth rescue (activation)” value is inactive: 13.8%.

In the case of `Cc1ccc(CC(=O)Nc2ccc(S(=O)(=O)N3CCOCC3)cc2)cc1`, the “growth rescue (activation)” value is inactive: 19.3%.

As for `CC12CN(C(=O)c3ccccc3Br)CC(C)(CN(C(=O)c3ccccc3Br)C1)C2=O`, the “growth rescue (activation)” value was inactive: 13.8%.

For the compound `O=C(CN1CCCCC1)NCCNc1ccc(C(F)(F)F)cc1[N+](=O)[O-]`, the “growth rescue (activation)” value was inactive: -8.01%.

For `COc1cc(C(=O)c2ccccc2)c(OC)cc1C(=O)Nc1ccc(O)cc1`, the “growth rescue (activation)” value was inactive: 5.59%.

On to `CC(C)CNC(=O)C1(C)CCCN1C(=O)c1ccc2ccccc2n1` (configuration not stated), for which the “growth rescue (activation)” value is inactive: 11%.

Regarding `COc1ccc(CNC(=O)c2ccc(-n3cncn3)c3ccoc23)cc1OC`, the “growth rescue (activation)” value is inactive: 25%.

Turning to `Cc1c(C(=O)OC/C(O)=C(\C#N)c2nc3ccccc3[nH]2)oc2ccccc12`, the “growth rescue (activation)” value is inactive: 3.34%.

On to `O=C(CSc1nc2ccccc2c(=O)n1-c1ccccc1F)NC1CC1`, for which the “growth rescue (activation)” value was inactive: 8.64%.

In the case of `COc1ccc(-c2n[nH]c(=S)n2/N=C/C=C\c2ccccc2OC)cc1`, the “growth rescue (activation)” value is inactive: -4.16%.

With `CN(C)CCNc1ncnc2c1ncn2[C@H]1CN(Cc2ccc(-c3ccccc3)cc2)C[C@@H](CO)O1`, the “growth rescue (activation)” value is inactive: -4.55%.

For `O=S(=O)(Nc1ccc(Cc2ccncc2)cc1)c1ccc(Cl)s1`, the “growth rescue (activation)” value was inactive: 1.12%.

Regarding `O=C(CCS(=O)(=O)c1ccccc1)Nc1ccc(Cl)cn1`, the “growth rescue (activation)” value was inactive: -6.14%.

As to `CN1CCN(C(=O)c2cc(=O)c3cc(Cl)ccc3o2)CC1`, the “growth rescue (activation)” value is inactive: 0.178%.

Turning to `O=C(COc1ncnc2sccc12)NC1CCCc2ccccc21` (configuration not stated), the “growth rescue (activation)” value is inactive: -29.7%.

Turning to `COc1ccc(C2(C)NC(=O)NC2=O)cc1OC` (configuration not stated), the “growth rescue (activation)” value was inactive: 13.5%.

Take `COc1ccc(NC(=O)NC2(C(=O)N3CCOCC3)CCCCC2)cc1`: the “growth rescue (activation)” value was inactive: 10.9%.

Turning to `COc1ccc(CC(=O)NNC(=O)CSc2nc(C)c(C)c(=O)[nH]2)cc1`, the “growth rescue (activation)” value was inactive: -1.09%.

With `O=[N+]([O-])c1ccc(/C=N/Nc2nc(-c3ccccc3)c3cc(Br)ccc3n2)o1`, the “growth rescue (activation)” value is inactive: 17.9%.

Turning to `CC(C)[C@H](NC(=O)c1ccccc1)C(=O)OCC(=O)N1CCCCCC1`, the “growth rescue (activation)” value was inactive: -29.7%.

For `O=C(O)CCCCCN1C(=O)C(O)=C(C(=O)/C=C/c2ccccc2)C1c1cccc([N+](=O)[O-])c1` (configuration not stated), the “growth rescue (activation)” value was inactive: 19.2%.

As to `CC(C)Oc1ccc(CCc2nnc(SCC(=O)O)n2-c2ccccc2)cc1`, the “growth rescue (activation)” value was inactive: 0.464%.

Consider `Cc1[nH]c2ccccc2c1/C=N/NC(=O)CNC(=O)c1ccccc1`, for which the “growth rescue (activation)” value was inactive: 10.6%.

`C/C(=N/N=C/c1ccc(N(C)C)cc1)c1ccccc1`: the “growth rescue (activation)” value was inactive: 1.52%.

Turning to `COc1ccc(CNC(=O)COC(=O)CCCOc2ccc(Cl)cc2Cl)cc1OC`, the “growth rescue (activation)” value is inactive: -18%.

As to `CC1(C(=O)NCc2cccc3ccccc23)CCN1Cc1ccc(-c2ccccc2)o1` (configuration not stated), the “growth rescue (activation)” value was inactive: 14.1%.

Regarding `Cc1c(C)c2ccc(OS(C)(=O)=O)c(C)c2oc1=O`, the “growth rescue (activation)” value was inactive: 23.1%.

With `CCCCCN1CC(=O)N2Cc3[nH]c4ccccc4c3C[C@H]2C1=O`, the “growth rescue (activation)” value was inactive: 3.2%.

As to `O=C(c1ccco1)N1N=C(c2ccncc2)CC1(O)C(F)(F)F` (configuration not stated), the “growth rescue (activation)” value was inactive: -6.76%.

`O=C(c1ccc([N+](=O)[O-])cc1)N1CCN(Cc2ccccc2[N+](=O)[O-])CC1`: the “growth rescue (activation)” value was inactive: -0.638%.

For the compound `Cc1cccc(C)c1OCc1nc2c3cnn(-c4ccccc4Br)c3ncn2n1`, the “growth rescue (activation)” value was inactive: 4.42%.

For `COc1cc(NC(=O)c2cc(C3CC3)nc3c2c(C)nn3-c2ccc(C)cc2)cc(OC)c1`, the “growth rescue (activation)” value is inactive: 9.82%.
